Assay results from PubChem BioAssay AID2112 (National Center for Advancing Translational Sciences (NCATS), 2009).
Among all 240,000 compounds or so, about 15 (0.006%) were called active. The shares of active, inactive and inconclusive entries below differ from those in the screen. Calls follow the shape of the dose curve; as a rule, active = well fitted inhibition curve with a large enough effect; inconclusive = small, poorly fitted or top-dose-only effect, or effect the other way, or another doubt; inactive = no such curve, though single readings can be large or run the other way. Potencies of inconclusive entries are left out as doubtful fits.
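For activity change, negative = inhibition in this document: 0% = enzyme with vehicle and -100% = no enzyme basal signal.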
Potency is read from the fitted curve at half-maximal effect; tags tell the direction and shape of the fitted curve.

What follows are compounds tested against Lysosomal alpha-glucosidase (Homo sapiens) (UniProt P10253) (assay: qHTS Assay for Inhibitors and Activators of Human alpha-Glucosidase From Spleen Homogenate). Conditions: 4-MU-alpha-glucoside fluorescence; series mostly up to 79.9 µM.
In short: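 Compounds were titrated against alpha-glucosidase in spleen homogenate at pH 5.0, with 1 mM 4-methylumbelliferyl substrate for 40 min at 37 C. Reactions were quenched with pH 10 NaOH/glycine and fluorescence measured.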
In the case of `CC(C)OCCCn1c(-c2ccco2)nc2nc3ccccc3nc21`, the Potency is reported as inconclusive [activator, partial curve]. In the case of `Cc1onc(-c2ccccc2)c1CNS(=O)(=O)c1ccccc1`, the Potency is reported as “inactive”. In the case of `COc1ccc(-c2nc3cccc(C)n3c2NCC2CCCO2)cc1O` (stereo unspecified), the Potency is reported as “inactive”. `COc1ccc(-n2c(N)c(C(=O)NCC3CCCO3)c3nc4ccccc4nc32)c(OC)c1` (stereo unspecified) was tested, and the Potency was inconclusive [activator, single point]. `CO/N=C\CC(=O)Nc1ccc(Cl)c(Cl)c1` was tested, and the Potency was “inactive”. For `COc1cccc2sc(Nc3nc(-c4ccncc4)cs3)nc12`, the Potency was inconclusive [inhibitor, partial curve, poor fit]. In the case of `Cn1cc(/C=C2\SC(=S)N(NC(=O)c3ccccc3Cl)C2=O)c2ccccc21`, the Potency is reported as inconclusive [inhibitor, full curve, poor fit]. `O=C(CC1SC(=O)N(Cc2cccc3ccccc23)C1=O)Nc1nccs1` (stereo unspecified) was tested, and the Potency was inconclusive [inhibitor, full curve, poor fit]. In the case of `Cc1ccc2cc(CN(C(=O)c3ccco3)c3ccccc3C)c(=O)[nH]c2c1`, the Potency is reported as inconclusive [inhibitor, full curve, poor fit]. In the case of `CCCCN(CC)CCOc1cccc2ccccc12`, the Potency is reported as “inactive”. With `CCCCNc1nc(C)nc2c1nc(-c1ccccc1)n2CCCN(C)C` the Potency was “inactive”. With `O[C@H](CCCN1CCN(c2ncc(F)cn2)CC1)c1ccc(F)cc1` the Potency was inconclusive [inhibitor, full curve, poor fit]. For `COC[C@H]1OC(=O)c2coc3c2[C@@]1(C)C1=C(C3=O)C2CCC(=O)[C@@]2(C)C[C@H]1OC(C)=O` (stereo partly specified), the Potency was inconclusive [inhibitor, partial curve]. `C/C(N)=C(/C#N)C(=O)CSc1n[nH]c(-c2cccs2)n1` was tested, and the Potency was inconclusive [inhibitor, full curve, poor fit]. With `COc1ccc(-c2cc3ccc(OCc4nn[nH]n4)cc3oc2=O)cc1` the Potency was inconclusive [activator, partial curve]. For `O=c1oc2ccccc2cc1-c1nc2ccccc2o1`, the Potency was inconclusive [activator, partial curve]. With `CCC(=O)Oc1ccc2c(C)c(Cl)c(=O)oc2c1` the Potency was inconclusive [activator, single point]. In the case of `Cc1nnc(SCc2cnc(-c3ccccc3)o2)[nH]c1=O`, the Potency is reported as inconclusive [inhibitor, single point]. `CCc1cc(-c2n[nH]c(C)c2-c2nc3ccccc3n2C)c(O)c(CN2CCN(C)CC2)c1O` was tested, and the Potency was “inactive”. With `CCCc1cc(=O)oc2c(CN3CCOCC3)c(O)ccc12` the Potency was inconclusive [activator, partial curve]. `COc1ccccc1C1CN(c2ccccc2)N=C1c1cccs1` (stereo unspecified) was tested, and the Potency was inconclusive [activator, single point]. In the case of `CCOC(=O)N=Nc1c2ccccc2c2nc3no[nH]c3nc12`, the Potency is reported as “inactive”. In the case of `COc1ccc2c(c1)C(=O)[C@H](OC(=O)N[C@H](C)C1CCCCC1)[C@@H](c1ccc(OC)c(Br)c1)O2`, the Potency is reported as “inactive”. `Cc1ccc(C(=O)Nc2nc3c(s2)CCCC3)o1` was tested, and the Potency was inconclusive [inhibitor, full curve, poor fit]. For `COC(=O)c1nn(-c2ccccc2)c(Cl)c1/C=N/OCc1ccc(Cl)cc1Cl`, the Potency was inconclusive [inhibitor, single point]. With `COc1ccc(Cc2nc(=S)[nH][nH]2)cc1Br` the Potency was inconclusive [inhibitor, single point]. For `Cc1cccc(C2=NN(c3ccccc3)[C@H](CO)[C@H]2c2ccccc2)c1`, the Potency was inconclusive [activator, partial curve]. With `Cc1c(CCC(=O)O)c(=O)oc2cc(O)ccc12` the Potency was inconclusive [activator, partial curve]. With `CCCOc1ccc(C2C(C(=O)OC)=CN(CCOC)C=C2C(=O)OC)cc1` the Potency was inconclusive [activator, single point]. For `CC(=O)Oc1ccc2ccc(=O)oc2c1`, the Potency was inconclusive [activator, partial curve]. With `COc1ccc(-c2nc(CC(=O)O)cs2)cc1OC` the Potency was inconclusive [inhibitor, partial curve]. With `Cc1ccc(S(=O)(=O)NC(C(=O)Oc2cc3oc(=O)cc(C)c3cc2Cl)C(C)C)cc1` (stereo unspecified) the Potency was inconclusive [activator, partial curve]. With `COC(=O)Cc1c(C)c2ccc(OC(=O)c3ccco3)cc2oc1=O` the Potency was inconclusive [activator, partial curve]. With `COC(=O)C1=CNC=C(C(=O)OC)C1c1ccccc1Cl` the Potency was inconclusive [activator, single point]. With `CCN1CCS/C1=C/C=C/C1=[N+](CC)CCS1` the Potency was inconclusive [inhibitor, single point]. In the case of `CCc1ccc(NC(=O)CSc2nc3n[nH]c(C)c3c(=N)n2-c2cccc(OC)c2)cc1`, the Potency is reported as “inactive”. For `COC(=O)c1sc2ccccc2c1N`, the Potency was inconclusive [activator, partial curve]. `CCCCCCCCCCCCC/C=C/C(O)C(COP(=O)(O)OCCN)NC(=O)CCCCCCCCCCCCCCCCC` (stereo unspecified) was tested, and the Potency was “inactive”. `O=[N+]([O-])/C(=C\Nc1ccccc1Cl)S(=O)(=O)c1ccccc1` was tested, and the Potency was “inactive”. With `COc1cc(C(=O)Oc2c(CN3CCOCC3)cc(Cl)c3cccnc23)cc(OC)c1OC` the Potency was “inactive”. For `C=CC[C@@H]1C=C[C@@H](O/N=C\C[C@@H]2C=C[C@H](OC(C)=O)[C@H](COC(C)=O)O2)[C@@H](CO)O1`, the activity change, negative = inhibition was inactive: 0.845% [at 17.4 µM]. With `CCOC(=O)CN=C1CC(C)(C)CC2=C1Sc1ncnc(N(C)C)c1N2` the Potency was “inactive”. `O=C(NCc1cccc(C(F)(F)F)c1)c1cc(Cl)cc(Cl)c1` was tested, and the Potency was inconclusive [inhibitor, partial curve, poor fit]. `CCOCC(=O)Nc1cc(-c2cn3cccnc3n2)ccc1C` was tested, and the Potency was inconclusive [activator, single point]. For `N#CC1=C(N)n2c(s/c(=C\c3cccs3)c2=O)=C(C#N)C1c1cccs1` (stereo unspecified), the Potency was “inactive”. In the case of `O=c1c(-c2ccc(F)cc2)nc2cnc(N3CCOCC3)nc2n1Cc1ccc(F)cc1`, the Potency is reported as “inactive”. In the case of `CCOC(=O)c1c(N)n(Cc2ccco2)c2nc3ccccc3nc12`, the Potency is reported as inconclusive [activator, partial curve]. For `COc1cccc(-c2ccc3ncnc(N(C)C)c3c2)c1`, the Potency was “inactive”. `O=C(Nc1ccc(OCC(=O)N2CCN(S(=O)(=O)c3ccccc3)CC2)cc1)c1ccco1` was tested, and the Potency was inconclusive [inhibitor, partial curve]. In the case of `CC(C)(C)OC(=O)NCCc1nnc(SCc2c(Cl)cccc2Cl)o1`, the Potency is reported as inconclusive [inhibitor, single point]. In the case of `CC(C)CO/N=C1/C[C@@H](O)[C@@H](O)[C@@H]2[C@@H]3C(=O)N(c4cccc(Oc5ccccc5)c4)C(=O)[C@H]3CC[C@@H]12`, the activity change, negative = inhibition is reported as inactive: -8.42% [at 17.4 µM]. For `CCc1c(C)c2cc(Cl)c(O)c(CN(CC)CC)c2oc1=O`, the Potency was inconclusive [activator, partial curve]. `CCCc1nnc(NC(=O)c2ccncc2)s1` was tested, and the Potency was inconclusive [inhibitor, single point]. In the case of `O=C1C2C(c3ccccc3)=NN(c3ccccc3)C2C(=O)N1c1ccccc1` (stereo unspecified), the Potency is reported as inconclusive [activator, single point]. With `Fc1ccc(Nc2nc(-c3ccncc3)cs2)cc1` the Potency was “inactive”. `CCCN(CCC)CCCNC(=O)c1cc2cc3ccc(OC)cc3nc2o1` was tested, and the Potency was inconclusive [activator, single point]. In the case of `Cc1ccc(-c2cc(-c3ccco3)c(C#N)c(=O)[nH]2)cc1`, the Potency is reported as inconclusive [activator, partial curve]. With `c1ccc2sc(-c3ccc4c(c3)OCO4)nc2c1` the Potency was “inactive”. `Oc1ccc(/C=N/Nc2ncnc3nc[nH]c23)cc1` was tested, and the Potency was inconclusive [inhibitor, partial curve]. `COCCN(CCOC)Cc1c(O)ccc2c3c(c(=O)oc12)CCC3` was tested, and the Potency was inconclusive [activator, partial curve]. With `Cc1noc(C)c1-c1ccc2ncnc(NCc3ccco3)c2c1` the Potency was “inactive”. For `Cc1c(O)c(CN2CCCC2)cc2c3c(c(=O)oc12)CCC3`, the Potency was inconclusive [activator, single point]. For `Cc1onc(-c2ccccc2Cl)c1C(=O)Nc1ccc(-c2cn3cccnc3n2)cc1`, the Potency was inconclusive [activator, partial curve]. `COc1cc(C2c3cc4c(cc3C(OC3OC5COC(c6cccs6)OC5C(O)C3O)C3COC(=O)C23)OCO4)cc(OC)c1O` (stereo unspecified) was tested, and the Potency was inconclusive [activator, single point]. `Cn1c(/C=C/c2ccccc2)nc2ccccc21` was tested, and the Potency was “inactive”. For `COc1cccc([C@@H]2Oc3ccc(OC)cc3C(=O)[C@H]2OC(=O)NCc2ccco2)c1`, the Potency was “inactive”. `OC[C@@H](O)[C@@H](O)CCc1ccccc1` was tested, and the Potency was “inactive”. `CS(=O)(=O)Nc1cccc(-c2nccc(-n3ccnc3)n2)c1` was tested, and the Potency was “inactive”. `CC(=O)Nc1ccc(SCC(c2ccccc2)N2CCN(C)CCC2=O)cc1` (stereo unspecified) was tested, and the Potency was “inactive”. In the case of `Cc1nnc2sc(SCC(=O)Nc3nccs3)nn2c1=O`, the Potency is reported as “inactive”. In the case of `Cc1c(OC(=O)CNC(=O)OC(C)(C)C)ccc2c3c(c(=O)oc12)CCC3`, the Potency is reported as inconclusive [activator, full curve].
